Results taken from PubChem BioAssay (NCI).
Where “and” joins values, the source holds several entries; their conditions need not be identical. Equal entries are not always repeated.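 Compound exposure: 48 hours, 5 concentrations, 96-well plates. The concentration for 50% growth inhibition is given as GI50. TGI is the concentration that stops growth completely.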

Each molecule was assayed on NCI-H322M lung (assay: NCI-60 cell line screen, 48 h).

SMILES | TGI | GI50
Cc1ccnc2c1ccc1nc3ccccc3n12 | > 100 µM | –
O=C(O)C(Br)Cc1ccc2c(c1)OCO2 (configuration not stated) | > 100 µM | –
COC(=O)Nc1nc2ccc(Oc3ccc(NC(=O)Nc4cccc(Cl)c4)cc3)cc2[nH]1 | > 22.5 µM | 1.83 µM
NC(=S)N/N=C(/C(=O)Nc1nc2ccc([N+](=O)[O-])cc2s1)C1C(=O)NC(=S)NC1=O | > 100 µM | –
O=C(C=Nc1ccccc1C(=O)[O-])c1cccs1.O=C(C=Nc1ccccc1C(=O)[O-])c1cccs1.[Cu+2] | > 100 µM | –
COc1ccc2c(c1)Cc1c-2c(NN)nc2ccccc12 | > 100 µM | 38 µM
CC1(C)C2CCC13C(=O)C1OC3(C2)C2C(=O)c3c(O)ccc(O)c3C(=O)C12 (configuration not stated) | 98.1 µM | 29.8 µM
C=CCN(N=O)C(=O)N(CCC)CCCCC(NC(C)=O)C(=O)NCc1ccccc1 (configuration not stated) | > 100 µM | –
Cn1cnc2c(NCc3ccccc3)nc(NCCO)nc21 | 410 µM | 99.2 µM
CCOC(=O)c1c(-c2ccccc2)[nH]c2ccc(Cl)cc2c1=O | > 100 µM | –
COC(=O)c1c(C(=O)OC)c(C(c2ccccc2)c2ccccc2)n(-c2ccccc2)c1Cl | > 10 µM | –
O=C1NC(Cc2c[nH]c3ccccc23)C(=O)N2C(c3ccccc3)c3[nH]c4ccccc4c3C[C@@H]12 (some centres not stated) | 81.6 µM | –
O=C1c2cccnc2C(=O)c2c1nc1ccccc1c2-c1cncc(-c2c3c(nc4ccccc24)C(=O)c2cccnc2C3=O)c1 | 1.02 µM | –
CN1CCN(Cc2ccc(Nc3ncc(Cl)c(Nc4ccccc4S(=O)(=O)N(C)C)n3)cc2)CC1 | 0.59 µM | 0.0955 µM
O=S1c2ccc(Cl)cc2CC(SSC2Cc3cc(Cl)ccc3S(=O)c3ccccc32)c2ccccc21 (configuration not stated) | > 100 µM | –
CCCCCCCCCC(=O)OCC1OC(n2cc(F)c(=O)[nH]c2=O)C(N)C(OC(=O)CCCCCCCCC)C1O (configuration not stated) | 40.6 µM | –
COc1cc2c(cc1OC)[C@@]1(C)C(=O)c3cc4c(cc3[C@H]1N(C)C2=O)OCO4 | > 100 µM | > 100 µM
Cc1cccc(N=C2c3cc([N+](=O)[O-])ccc3-c3c2cc([N+](=O)[O-])cc3[N+](=O)[O-])c1 | 32.4 µM | 13.9 µM
CN(CCO)c1nc2c(c(=O)[nH]1)CNCC2 | > 100 µM | –
COc1ccccc1CNCc1nc2ccccc2[nH]1 | > 100 µM | –
N#CC1=C(N2CCOCC2)CCC1 | > 100 µM | –
CCC(=C(c1ccc(OCc2ccccc2)cc1)c1ccc(OCc2ccccc2)cc1)c1ccc(OC)cc1 | > 100 µM | –
C=C[C@]1(C)C=C2C(=O)[C@@]3(O)OC(=O)[C@@]4(CCCC(C)(C)[C@H]34)[C@@]2(O)CC1 | 18.5 µM | 4.98 µM
Clc1ccc2nc(CCSCCc3nc4ccc(Cl)cc4[nH]3)[nH]c2c1 | 5.21 µM | –

SMILES | TGI | GI50
CN=S(=O)(C[C@]1(O)CC2OC1C1OC(C)(C)OC21)c1ccccc1 (some centres not stated) | > 100 µM | –
CC(C)(CCCCC(C)(C)NCC1COc2ccccc2O1)NCC1COc2ccccc2O1 (configuration not stated) | > 10 µM | –
NC(=O)NC(=O)c1ccc(NC(=O)CBr)cc1 | 19.7 µM | –
COc1ccc2c(c1)/C(=C\c1cccc(/C=C3/C(=O)Nc4ccc(OC)cc43)n1)C(=O)N2 | 14.3 µM | –
C#C[C@]1(O)CC[C@H]2[C@@H]3CCC4=C/C(=N\OCCN5CCCC5)CC[C@]4(C)[C@H]3CC[C@@]21C | 38.2 µM | –
COc1ccc(F)cc1C(=O)c1cnc(NC2CCN(S(C)(=O)=O)CC2)nc1N | > 18.8 µM | 4.2 µM
O=C(/C=C/c1ccccc1)CCC1C(=O)NC(=O)NC1=O | > 100 µM | –
O=c1c2c3c(sc2nc2n1N=CN(c1ccc(Cl)cc1)C2)CCCC3 | > 100 µM | –
COC(=O)c1nc2c3c(cccc3c1C(=O)OC)Nc1ccccc1-2 | > 100 µM | –
COc1cc(-c2nc3ccccc3s2)ccc1OCc1nc2n(n1)S(=O)(=O)c1ccccc1N2C | > 100 µM | > 100 µM
Clc1ccc(CO/N=C(\Cn2ccnc2)c2ccc(Cl)cc2Cl)c(Cl)c1 | 3.21 µM | 1.79 µM
Cc1cc(C)n(-c2c(O)ccc(O)c2-n2nc(C)cc2C)n1 | > 100 µM | –
CC(C)=CCC[C@@H](C)C1=C(Nc2ccccc2)C(O)=C(C)C(=O)C1=O | > 100 µM | –
COc1cc(CCCC(O)COc2cccc3c2C2(O)CCCCCC32)cc(OC)c1 (configuration not stated) | 35.3 µM | –
C=CC(c1ccccc1)C1(O)c2cccc(O)c2C(=O)c2c(O)cccc21 (configuration not stated) | 41.6 µM | –
CCOC(=O)Oc1cc2c(ccn2C)c2c1c1ccccc1n2C(=O)OCC | > 100 µM | –
O=C(NCC#CCO)C(F)(F)F | > 100 µM | –
O=C1C=CC2(C=C1)CCN=c1c(O)c3c(c(O)c12)=NC=N3 | 29.8 µM and > 100 µM | 16 µM and > 100 µM
CCCC(=O)NNc1[nH]c(-c2ccc(OC)cc2)cc1C(=O)OCC | > 100 µM | 44.5 µM
COc1cc(C(=O)n2nc(N3CCN(C)CC3)c3cc(N)ccc32)cc(OC)c1OC | > 100 µM | 3.7 µM
COc1ccc(-n2cnc3c(NC(C)(C)C(=O)O)ncnc32)cc1 | > 100 µM | –
COc1ccc(OC)c2cc(C3(C)SCCCS3)ccc12 | > 100 µM | –
C/C1=C\CC[C@@]2(C)O[C@@H]2[C@H]2OC(=O)C(C)C2C[C@H]1O (some centres not stated) | > 100 µM | –
Nc1ccn([C@@H]2C=C(CO)[C@@H](O)[C@H]2O)c(=O)n1 | 500 µM and > 625 µM | –
